# A compilation of properties of binary mixtures (doi:10.1007/s10953-010-9600-3)
# Some of these densities may be calculated back from excess volumes.
# Assay: xn = mol fraction of the nth substance listed
# Conditions: 101 kPa
smiles,measurement,setting,value
CC[NH3+].O=[N+]([O-])[O-] + O=C1CCCO1,mass density,"293.15 K, x2 = 0",1210.2 kg/m3
same,mass density,"293.15 K, x2 = 0.03",1205.7 kg/m3
same,mass density,"293.15 K, x2 = 0.09",1199 kg/m3
same,mass density,"293.15 K, x2 = 0.15",1193.4 kg/m3
same,mass density,"293.15 K, x2 = 0.22",1188.8 kg/m3
same,mass density,"293.15 K, x2 = 0.28",1184.8 kg/m3
same,mass density,"293.15 K, x2 = 0.34",1181.3 kg/m3
same,mass density,"293.15 K, x2 = 0.41",1178 kg/m3
same,mass density,"293.15 K, x2 = 0.47",1174.8 kg/m3
same,mass density,"293.15 K, x2 = 0.53",1171.4 kg/m3
same,mass density,"293.15 K, x2 = 0.59",1167.7 kg/m3
same,mass density,"293.15 K, x2 = 0.72",1158.2 kg/m3
same,mass density,"293.15 K, x2 = 0.78",1152 kg/m3
same,mass density,"293.15 K, x2 = 0.85",1144.6 kg/m3
same,mass density,"293.15 K, x2 = 0.91",1135.7 kg/m3
same,mass density,"293.15 K, x2 = 0.97",1125.2 kg/m3
same,mass density,"298.15 K, x2 = 0",1205.8 kg/m3
same,mass density,"298.15 K, x2 = 0.03",1201.8 kg/m3
same,mass density,"298.15 K, x2 = 0.09",1195.4 kg/m3
same,mass density,"298.15 K, x2 = 0.15",1190.1 kg/m3
same,mass density,"298.15 K, x2 = 0.22",1185.6 kg/m3
same,mass density,"298.15 K, x2 = 0.28",1181.7 kg/m3
same,mass density,"298.15 K, x2 = 0.34",1178.1 kg/m3
same,mass density,"298.15 K, x2 = 0.41",1174.8 kg/m3
same,mass density,"298.15 K, x2 = 0.53",1167.9 kg/m3
same,mass density,"298.15 K, x2 = 0.59",1164 kg/m3
same,mass density,"298.15 K, x2 = 0.78",1147.7 kg/m3
same,mass density,"298.15 K, x2 = 0.91",1131.1 kg/m3
same,mass density,"303.15 K, x2 = 0.03",1197.7 kg/m3
same,mass density,"303.15 K, x2 = 0.09",1191.9 kg/m3
same,mass density,"303.15 K, x2 = 0.22",1182.7 kg/m3
same,mass density,"303.15 K, x2 = 0.28",1178.8 kg/m3
same,mass density,"303.15 K, x2 = 0.34",1175.2 kg/m3
same,mass density,"303.15 K, x2 = 0.41",1171.7 kg/m3
same,mass density,"303.15 K, x2 = 0.53",1164.2 kg/m3
same,mass density,"303.15 K, x2 = 0.66",1155 kg/m3
same,mass density,"303.15 K, x2 = 0.72",1149.2 kg/m3
same,mass density,"303.15 K, x2 = 0.85",1134.4 kg/m3
same,mass density,"303.15 K, x2 = 0.91",1125.1 kg/m3
same,mass density,"303.15 K, x2 = 0.97",1114.2 kg/m3
same,mass density,"308.15 K, x2 = 0",1196.9 kg/m3
same,mass density,"308.15 K, x2 = 0.03",1193.9 kg/m3
same,mass density,"308.15 K, x2 = 0.09",1188.3 kg/m3
same,mass density,"308.15 K, x2 = 0.15",1183.5 kg/m3
same,mass density,"308.15 K, x2 = 0.22",1179.2 kg/m3
same,mass density,"308.15 K, x2 = 0.28",1175.4 kg/m3
same,mass density,"308.15 K, x2 = 0.34",1171.9 kg/m3
same,mass density,"308.15 K, x2 = 0.47",1164.8 kg/m3
same,mass density,"308.15 K, x2 = 0.53",1160.9 kg/m3
same,mass density,"308.15 K, x2 = 0.66",1151.6 kg/m3
same,mass density,"308.15 K, x2 = 0.72",1145.8 kg/m3
same,mass density,"308.15 K, x2 = 0.85",1131.1 kg/m3
same,mass density,"308.15 K, x2 = 0.91",1121.8 kg/m3
same,mass density,"308.15 K, x2 = 0.97",1111.1 kg/m3
same,mass density,"313.15 K, x2 = 0.09",1184.7 kg/m3
same,mass density,"313.15 K, x2 = 0.28",1172.3 kg/m3
same,mass density,"313.15 K, x2 = 0.34",1168.7 kg/m3
same,mass density,"313.15 K, x2 = 0.41",1165.2 kg/m3
same,mass density,"313.15 K, x2 = 0.47",1161.4 kg/m3
same,mass density,"313.15 K, x2 = 0.53",1157.4 kg/m3
same,mass density,"313.15 K, x2 = 0.59",1152.9 kg/m3
same,mass density,"313.15 K, x2 = 0.72",1141.7 kg/m3
same,mass density,"313.15 K, x2 = 0.85",1126.7 kg/m3
same,mass density,"313.15 K, x2 = 0.91",1117.3 kg/m3
same,mass density,"313.15 K, x2 = 0.97",1106.4 kg/m3
same,mass density,"318.15 K, x2 = 0.03",1186 kg/m3
same,mass density,"318.15 K, x2 = 0.09",1181.1 kg/m3
same,mass density,"318.15 K, x2 = 0.15",1176.8 kg/m3
same,mass density,"318.15 K, x2 = 0.22",1172.9 kg/m3
same,mass density,"318.15 K, x2 = 0.28",1169.2 kg/m3
same,mass density,"318.15 K, x2 = 0.34",1165.6 kg/m3
same,mass density,"318.15 K, x2 = 0.41",1161.9 kg/m3
same,mass density,"318.15 K, x2 = 0.53",1153.9 kg/m3
same,mass density,"318.15 K, x2 = 0.66",1143.8 kg/m3
same,mass density,"318.15 K, x2 = 0.72",1137.6 kg/m3
same,mass density,"318.15 K, x2 = 0.78",1130.4 kg/m3
same,mass density,"318.15 K, x2 = 0.85",1122.2 kg/m3
same,mass density,"318.15 K, x2 = 0.91",1112.6 kg/m3
same,mass density,"318.15 K, x2 = 0.97",1101.7 kg/m3
O=C1CCCO1 + CC[NH3+].O=[N+]([O-])[O-],mass density,"293.15 K, x1 = 1",1120.3 kg/m3
same,mass density,"298.15 K, x1 = 1",1115.6 kg/m3
same,mass density,"303.15 K, x1 = 1",1109.1 kg/m3
same,mass density,"308.15 K, x1 = 1",1106.1 kg/m3
same,mass density,"313.15 K, x1 = 1",1101.4 kg/m3
same,mass density,"318.15 K, x1 = 1",1096.7 kg/m3
